This is one part of the list.
Each sequence was assayed against T1, OsWOX13 (Oryza sativa, UniProt Q5QMM3 1-267) (assay: protein-binding microarray (RPBM); PBS, 2% BSA, 51.3 ng/ul salmon testes DNA, 50 uM zinc acetate, 200 nM TF, 25 C, 1 h; high values mean tight binding). Details: protein: recombinant; tags: N-terminal polyhistidine and DsRed monomer fusion (pET32a); label: CyDye5-dUTP incorporated in the synthesized complementary strand; 3' TTTTT single-stranded linker to array surface; dsDNA, one strand shown.
T1 sequence: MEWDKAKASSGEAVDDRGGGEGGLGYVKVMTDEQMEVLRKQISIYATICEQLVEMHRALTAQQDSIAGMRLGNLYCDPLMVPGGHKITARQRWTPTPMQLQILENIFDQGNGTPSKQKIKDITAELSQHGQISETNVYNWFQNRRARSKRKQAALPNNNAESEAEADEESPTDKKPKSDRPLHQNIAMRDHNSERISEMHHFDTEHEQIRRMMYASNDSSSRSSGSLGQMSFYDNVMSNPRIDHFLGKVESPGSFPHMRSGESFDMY
In short: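 In PBS with 2% BSA, salmon testes DNA and 50 µM zinc acetate, 200 nM protein was incubated on a custom Agilent array at 25 °C for 1 h and then washed off. The array had been made double-stranded by primer extension with Cy5-dUTP and blocked with 2% BSA. The proteins were transcription factors fused N-terminally to polyhistidine and DsRed, expressed in E. coli BL21-CodonPlus and purified on Ni–NTA. The binding signal is per-feature fluorescence intensity (arbitrary units) from an Axon 4000B scanner.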

Sequence | binding signal
GGAATTTGTCATGATAATTGGGAAAATATATACTGCAAACCGGAGTCACCTAGTGCAG | 21200 fluorescence intensity (a.u.)
TTAATGAATTTAGACATAATATATATCTAGATTCATTAGCCGGAGTCACCTAGTGCAG | 20500 fluorescence intensity (a.u.)
GCTATTAGATTGACTATATATGAATTGGAGCTAGTAGTTGCGGAGTCACCTAGTGCAG | 42900 fluorescence intensity (a.u.)
ACGAATCTTTTGAGTCTAATTAGTCCATGATTAGCCATAACGGAGTCACCTAGTGCAG | 13600 fluorescence intensity (a.u.)
TTAACTAATTATATGTCAATGAGTCGTTTCATTCTACGTGCGGAGTCACCTAGTGCAG | 48400 fluorescence intensity (a.u.)
AGTACTGTAGATAATAAAGTAAGTCACGAATAAAATAAATCGGAGTCACCTAGTGCAG | 50900 fluorescence intensity (a.u.)
TTCTTTAAATCACACAAGTAATCTGTTTCACTGATGAGTGCGGAGTCACCTAGTGCAG | 3290 fluorescence intensity (a.u.)
GGCTAAATAGACTTATTCCATTCCAACAAGAGTGGAAATTCGGAGTCACCTAGTGCAG | 4000 fluorescence intensity (a.u.)
TGATAACTAATATATTTGTCATAACTCACTTTACACATACCGGAGTCACCTAGTGCAG | 3920 fluorescence intensity (a.u.)
TTTCAATATTTTAATTTATTGTTCAACTTCTAATAGATGTCGGAGTCACCTAGTGCAG | 4000 fluorescence intensity (a.u.)
ATAAAATTGCCACATAAGCACCACGTCAATGCTATGTGGGCGGAGTCACCTAGTGCAG | 3430 fluorescence intensity (a.u.)
CATTACTATAATTGTATTACTTTTGGTAATCATTACCTAGCGGAGTCACCTAGTGCAG | 7680 fluorescence intensity (a.u.)
AGTAAATTACTTTTAAATTAATAAAATATCTGAATATACGCGGAGTCACCTAGTGCAG | 35000 fluorescence intensity (a.u.)
TCAAGATTTGTAAATTAGTGTTTCCAATTTAATTACATAGCGGAGTCACCTAGTGCAG | 30600 fluorescence intensity (a.u.)
CCGTAATTTGTTTCAATTTAACTGTTATGAAAATAGAGCTCGGAGTCACCTAGTGCAG | 35700 fluorescence intensity (a.u.)
TTATAATTATTTAATTCACAAATCCATACAAGCAGTGACACGGAGTCACCTAGTGCAG | 19100 fluorescence intensity (a.u.)
GATGGTATAATGGCAATTTTCTCGGCCTGACTGACGCCGGCGGAGTCACCTAGTGCAG | 10300 fluorescence intensity (a.u.)
TCCTAATAGGACATCCAAGCAAAACTAACACTCTAGAGCACGGAGTCACCTAGTGCAG | 3390 fluorescence intensity (a.u.)
TTCTTAATTAGTAAGTATTAATCTCAATGAGTTGGTCGTTCGGAGTCACCTAGTGCAG | 25900 fluorescence intensity (a.u.)
TGCTTGCTTGCTTGGTTTGATTGGTGGAGGTGGGAGGAGTCGGAGTCACCTAGTGCAG | 3920 fluorescence intensity (a.u.)
GGGCCTAATATCAAATAATTAGAAGGGGTAAAGCTTCGAACGGAGTCACCTAGTGCAG | 3770 fluorescence intensity (a.u.)
ACATTAACAAACTCTATCTTAACATTTAGATGCAAGAGCCCGGAGTCACCTAGTGCAG | 3790 fluorescence intensity (a.u.)
ACTTCTAATAGATGACGCCGTTAACTTTTAAACAAATATTCGGAGTCACCTAGTGCAG | 5610 fluorescence intensity (a.u.)
CCCTTTTCCTCAATCAGCAACCAGATCAACTCTGCACAGACGGAGTCACCTAGTGCAG | 10900 fluorescence intensity (a.u.)
TATTATGGTGATTAGATCCATCCTGGTTTGTTACTTAAGGCGGAGTCACCTAGTGCAG | 12300 fluorescence intensity (a.u.)
GAATAATTTTCGCTGACCATTGGGTTATATAGTTCGGTAGCGGAGTCACCTAGTGCAG | 9020 fluorescence intensity (a.u.)
CCCAATAATTAGTTGGCTGCTGCTGTAGTTGACTTATGGACGGAGTCACCTAGTGCAG | 33900 fluorescence intensity (a.u.)

Sequence | binding signal
CTGCTATAATTTATCTGGAGGGGCTATTGACAACAGCACTCGGAGTCACCTAGTGCAG | 7470 fluorescence intensity (a.u.)
TTTAAACTGCTAAACGGTGTGTTTAGTGCGAAAATATTCTCGGAGTCACCTAGTGCAG | 3600 fluorescence intensity (a.u.)
TTTATGCTTAATTTGTTGAATAAATAGTTTGTCGAAACACCGGAGTCACCTAGTGCAG | 10200 fluorescence intensity (a.u.)
ATTAACCCAATCAAATAACTCTAATTAACAAATGCTAACACGGAGTCACCTAGTGCAG | 29300 fluorescence intensity (a.u.)
CCATGTTAACTGAAAAGGCACCAATAATGTTATCCTTTGGCGGAGTCACCTAGTGCAG | 5040 fluorescence intensity (a.u.)
CCAAATTTCACTCAAAATCTACTTTTGTCCCAAGTTGGAACGGAGTCACCTAGTGCAG | 4170 fluorescence intensity (a.u.)
TGCATTGATTTGGTATAATTGACCATGCTTTGCGATGCAACGGAGTCACCTAGTGCAG | 57700 fluorescence intensity (a.u.)
CAACAAACAGATTGGCATTTAAGTTGTTAAATTCTGATCTCGGAGTCACCTAGTGCAG | 33800 fluorescence intensity (a.u.)
TTTCAAATTTAATTCCCCGATCCTGCGGGTTCGAGCCCTTCGGAGTCACCTAGTGCAG | 3460 fluorescence intensity (a.u.)
TGAAATTGGAATGATGTGAAGGAAAAGTTGGAAGTTTGTGCGGAGTCACCTAGTGCAG | 20700 fluorescence intensity (a.u.)
CTAAGTAGACTGATAAACAAATAGGCATGCCATTGTGTAACGGAGTCACCTAGTGCAG | 7110 fluorescence intensity (a.u.)
AGTGAATTGAGCAAGATTGCAAGGGCAAGCAGCTATATATCGGAGTCACCTAGTGCAG | 5840 fluorescence intensity (a.u.)
AGAGATGATTTCACTTTCCCGATACTACTAACCTTGACCACGGAGTCACCTAGTGCAG | 5500 fluorescence intensity (a.u.)
GAGATTTGATGACTGGGATGCCACATGGACACCACGACAGCGGAGTCACCTAGTGCAG | 15900 fluorescence intensity (a.u.)
CCGGTGTAATTTGATTCTCTAAGCGGTTTTAGATCTAAGCCGGAGTCACCTAGTGCAG | 8050 fluorescence intensity (a.u.)
ATAATGATAATTAACAAAATAATAGGTAGCTAAATTCATTCGGAGTCACCTAGTGCAG | 27200 fluorescence intensity (a.u.)
AATGATTATTCTTCTAAACCTTCAAAGCGAATGCAATGTCCGGAGTCACCTAGTGCAG | 25600 fluorescence intensity (a.u.)
ACCAAAGTAATTTCAATCTCATTGGAATTAATTGTTAGCCCGGAGTCACCTAGTGCAG | 28700 fluorescence intensity (a.u.)
TGTGATTTCACTTTGATTTGAAGAATTTTGCTTTGGTTCACGGAGTCACCTAGTGCAG | 27200 fluorescence intensity (a.u.)
AATATTGACAGATGAGTTTAGAGTCCACATAGAAATACAACGGAGTCACCTAGTGCAG | 9020 fluorescence intensity (a.u.)
TTTAAAGGAACTAATTTAACCTAATTTTGCATGTTAAGGGCGGAGTCACCTAGTGCAG | 4160 fluorescence intensity (a.u.)
TCGGCCTACTAGATTGACGAGGCCCAACACATCAGGCCTTCGGAGTCACCTAGTGCAG | 15700 fluorescence intensity (a.u.)
TAATTTATTAATTTATTATTAGAGTATATATATTTCAAGACGGAGTCACCTAGTGCAG | 6800 fluorescence intensity (a.u.)
AGTACAATGGGCCAAATTAATTGGACCCATGTTTTCGTTGCGGAGTCACCTAGTGCAG | 6960 fluorescence intensity (a.u.)
CGTCCAAGTACATAAGATTAATTGCCACCTATAAAATGGGCGGAGTCACCTAGTGCAG | 6430 fluorescence intensity (a.u.)
GTGATTACCAGATTTGCCCTTCGTACTGCTTAGAGTCATGCGGAGTCACCTAGTGCAG | 13500 fluorescence intensity (a.u.)
TGAACGTAACTTGATTGGTTAGCCTCGTTATGGTGTGCAACGGAGTCACCTAGTGCAG | 34400 fluorescence intensity (a.u.)

From PMC7819943, “Rice protein-binding microarrays: a tool to detect cis-acting elements near promoter regions in rice”
